# Test results: the supplement of paper PMC3334620
# The full ranking holds about 33,000 sequences; the median of “E-score (-0.5 to 0.5)” is about -0.032, and the highest 2% start at about 0.36. Some of the results follow.
# Biological target: T1, Sko1 (UniProt Q02100)
# T1 sequence: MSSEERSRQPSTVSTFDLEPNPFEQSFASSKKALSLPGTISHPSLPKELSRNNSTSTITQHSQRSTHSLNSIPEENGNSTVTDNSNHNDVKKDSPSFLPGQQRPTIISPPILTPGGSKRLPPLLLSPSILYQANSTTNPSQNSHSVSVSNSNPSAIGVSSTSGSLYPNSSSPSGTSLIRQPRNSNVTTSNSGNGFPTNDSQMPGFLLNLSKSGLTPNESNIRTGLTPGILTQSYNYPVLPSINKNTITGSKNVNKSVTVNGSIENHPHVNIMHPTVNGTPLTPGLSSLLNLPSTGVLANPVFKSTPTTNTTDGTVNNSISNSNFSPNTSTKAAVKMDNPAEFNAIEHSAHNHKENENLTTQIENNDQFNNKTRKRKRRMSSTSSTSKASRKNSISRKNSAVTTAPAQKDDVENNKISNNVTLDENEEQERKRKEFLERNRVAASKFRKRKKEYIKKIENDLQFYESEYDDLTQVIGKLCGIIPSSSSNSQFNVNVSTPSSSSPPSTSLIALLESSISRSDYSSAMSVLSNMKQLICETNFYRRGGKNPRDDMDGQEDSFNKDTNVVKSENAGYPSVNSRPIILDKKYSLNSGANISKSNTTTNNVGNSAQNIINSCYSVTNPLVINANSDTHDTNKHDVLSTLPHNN
# Experiment: PBM E-score (8-mer binding enrichment) (E-score (-0.5 to 0.5)); higher = stronger / more preferred TF binding; most listed sequences are background and not binding sites
# Details: protein concentration: 200 nM; construct: GST-full length
# Experimental: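 Universal 'all 10-mer' protein binding microarrays (Agilent AMADID 015681) probed with GST-tagged S. cerevisiae TFs (full-length or DBD) made by in vitro transcription/translation (PURExpress), about 100-200 nM. Bound TF was detected with fluorescent anti-GST. Each ungapped 8-mer (which stands for itself and its reverse complement) is scored by the PBM enrichment score (E-score), a modified Wilcoxon-Mann-Whitney statistic from -0.5 to +0.5, computed with the Universal PBM Analysis Suite. Scale: above 0.35 generally sequence-specific binding.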
row,Sequence,PBM E-score
1,AAATAGGC,-0.146
2,AGTATGGG,-0.0617
3,CTAATAGC,0.0413
4,CCCAAATA,-0.00888
5,TAAATGGA,0.0937
6,GAAGACCC,-0.346
7,AAGTGCGC,0.03
8,GTATAAAC,0.189
9,GAGGCGCA,-0.182
10,CATAAGAA,0.23
11,GGAGCCTA,-0.278
12,GCGAACCA,0.0513
13,CCACGCAG,0.057
14,ATGAAAGG,-0.00144
15,TAAGAAGA,0.115
16,ATACCGAT,-0.272
17,AAAGATGC,-0.0989
18,AATTATAA,0.204
19,TACCTTGA,0.0406
20,CGACTCCC,-0.233
21,ACCATACT,-0.0266
22,GGACACCC,-0.312

row,Sequence,PBM E-score
1,AAATGAGT,0.0777
2,ACGAAAGT,0.287
3,GCAAGCGC,-0.139
4,AACCAATC,-0.0284
5,AAGCGAGC,-0.107
6,TGGACCCA,-0.209
7,ATACATAG,0.146
8,CATGACAG,0.0237
9,ATAAAACC,-0.0531
10,CTACGCGA,0.167
11,AACTTCAA,0.0208
12,ATAAGAGA,0.0988
13,GTGAAATA,0.16
14,CAGCTTAA,0.0939
15,GAACCTGA,0.0507
16,ACACGACT,0.161
17,GGACAACA,-0.107
18,ACCTTCGA,-0.189
19,CATCGCAA,0.00796
20,AGATACAT,0.211
21,TCACGGGA,0.00178
22,TGCGCCCA,-0.205

row,Sequence,PBM E-score
1,TGACAAAA,0.252
2,CCCGTCAG,-0.214
3,AACTGTGA,0.101
4,GGAAAGTA,0.125
5,ACCCCTCA,-0.252
6,CTACCCCA,-0.119
7,AGCAGCGG,-0.305
8,ACCGCTCT,-0.237
9,CTGATCTA,0.0695
10,GTGCTGTA,-0.00064
11,GAGACCGC,-0.32
12,CGCTTGTC,-0.0955
13,CATGAATC,-0.00158
14,CCAGCATC,-0.141
15,AATCGTAA,0.323
16,CCGAGTCA,-0.208
17,TACCCGGA,-0.0109
18,GATAAAAC,0.167
19,CCAATGGC,-0.21
20,AGTCAGCC,-0.09
21,CACTAGGC,-0.247
22,AGGAGTGG,-0.191

row,Sequence,PBM E-score
1,CACCAAAA,0.111
2,CAATCATA,0.236
3,TAAGGGCA,-0.00876
4,ACCAGGGC,-0.235
5,ATCGGTAG,-0.0793
6,AACACTGC,0.0957
7,ACTACGGA,-0.036
8,ATTCAAGC,0.106
9,TCTGGTCA,-0.0951
10,ATAAAGAA,0.167
11,AAAAGGTA,0.0261
12,ACTCCGAA,-0.148
13,CATGTAAA,0.179
14,ACTATTAG,-0.0278
15,TAGTCATA,0.216
16,AATACCAT,0.196
17,GGAAGACA,-0.177
18,CAAATGAA,0.127
19,TCCCCCCA,-0.205
20,CCCGCAGA,-0.282
